Reference: PubChem BioAssay AID652104 (National Center for Advancing Translational Sciences (NCATS), 2013)
Screen size: about 410,000 compounds; about 7,200 (1.8%) were called active. This list was built around the results that the source calls inconclusive (neither active nor inactive); the mix of calls is not that of the screen. Calls follow the shape of the dose curve; as a rule, active = well fitted activation curve with a large enough effect; inconclusive = small, poorly fitted or top-dose-only effect, or another doubt; inactive = no such curve, though single readings can be large or run the other way. Potencies of inconclusive entries are left out as doubtful fits.

Test: qHTS of TDP-43 Inhibitors; also: nearly all actives have a fitted effect of over 50% in size; as to growth rescue (activation): % of control where 0% means no effect
Settings: TDP-43 expressing yeast growth rescue, BacTiter-Glo, 24 h; growth rescue (activation): at 46.1 µM (top of the series) unless noted
How it was run: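 Yeast expressing TDP-43 (pregrown in raffinose, seeded at OD600=0.02 in galactose medium) exposed to compounds 24 hr at 30 deg C. Growth read by BacTiter-Glo luminescence; rescue of toxicity appears as increased signal.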
Potency is read from the fitted curve at half-maximal effect; tags tell the direction and shape of the fitted curve.

Structure (SMILES)	Potency	growth rescue (activation)
CC1CC(C)CN(C(=O)COc2ccc(-c3nnco3)cc2)C1 (centres undefined)	inconclusive [activator, partial curve]	–
COC(=O)c1cc2oc(C)cc2n1CC(=O)N1CCCc2ccccc21	inconclusive [activator, partial curve]	–
Cc1ccc(N2CC(C(=O)Nc3nnc(SCc4ccccn4)s3)CC2=O)cc1 (centres undefined)	–	inactive: 25.4%
CCc1ccccc1OCC(=O)Nc1cccc(S(=O)(=O)NCc2ccco2)c1	inconclusive [activator, single point]	–
Clc1ccccc1N/N=C/c1ccc2c(c1)OCO2	active: 17.8 µM	–
CC(=O)c1cccc(Nc2nc(-c3cccc(C)c3)nc3ccccc23)c1	active: 15.8 µM	–
CCn1nc(C(=O)Nc2cccc3ccccc23)c(Cl)c1Cl	active: 15.8 µM	–
Cc1cc(-c2nnco2)c(C)n1-c1ccccc1	inconclusive [activator, single point]	–
COc1ccc(CCC(=O)N2CCN(S(=O)(=O)c3cccc(Cl)c3)CC2)cc1	inconclusive [activator, single point]	–
CCn1c(SCC(=O)N2c3ccccc3Sc3ccccc32)nnc1-c1ccco1	inconclusive [activator, single point]	–
COc1cccc(OC)c1OCCOc1ccccc1OC(C)C	inconclusive [activator, partial curve]	–
O=C(CSc1n[nH]c(-c2ccccc2)n1)N1CCN(c2ccccc2F)CC1	inconclusive [activator, partial curve]	–
COc1ccccc1N1C(=O)c2ccccc2NC1C(OC)OC (centres undefined)	inconclusive [activator, single point]	–
CCOCc1c(C(=O)N2CCN(CC(=O)Nc3ccc(F)cc3)CC2)oc2ccccc12	inconclusive [activator, partial curve]	–
C[C@H]1CN(C2CCCCC2)C(=O)[C@@H]1CC(=O)Nc1ccc(Br)cc1	inconclusive [activator, single point]	–
COc1ccc(CN2C(=O)N(c3ccc(F)cc3)C(=O)C2CC(=O)Nc2cc(OC)cc(OC)c2)cc1 (centres undefined)	–	inactive: -0.673%
CCCN(CC1CC1)C(=S)NC(=O)c1ccccc1Br	inconclusive [activator, partial curve]	–
Cc1ccccc1CSCCC(=O)NCCc1ccccc1	inconclusive [activator, partial curve]	–
O=C(Nc1ccc(S(=O)(=O)N2CCOCC2)cc1)c1ccccc1	inconclusive [activator, single point]	–
Cc1ccc(OCC(=O)Nc2ccc3c(c2)CCC3)c([N+](=O)[O-])n1	inconclusive [activator, partial curve]	–
O=C(/C=C/c1cn(-c2ccccc2)nc1-c1cccnc1)c1ccco1	active: 12.6 µM	–
CCC(=O)Nc1nc(-c2ccccc2)ns1	active: 8.91 µM	–
CNC(=O)c1cc2c(s1)-c1ccccc1CC2	inconclusive [activator, partial curve]	–

Structure (SMILES)	Potency	growth rescue (activation)
Cc1nn(C(=O)COc2ccccc2Br)c(C)c1Sc1ccccc1	inconclusive [activator, single point]	–
O=C1Nc2ccccc2/C1=C/C(=O)c1cccs1	–	inconclusive: -91.6% [activator]
Cc1c(C(=O)N(C)C2CCCCC2)sc2ncnc(N3CCN(c4ccccc4)CC3)c12	inconclusive [activator, single point]	–
Cc1nn(C)c2c1c(C(F)(F)F)cc(=O)n2C(C)C(=O)NCCc1ccccc1 (centres undefined)	–	inactive: 26.2%
Brc1ccc(C2=CC(c3cccs3)n3ncnc3N2)cc1 (centres undefined)	inconclusive [activator, single point]	–
O=C(Oc1cccc(Br)c1)c1cccnc1	inconclusive [activator, single point]	–
COc1cc(/C=C/c2nc(-c3ccccc3O)n[nH]2)cc(OC)c1OC	active: 15.8 µM	–
CCCS(=O)(=O)NC(=O)C1(C)CCN(C(=O)Cc2ccc3ccccc3c2)C1 (centres undefined)	–	inactive: -13.9%
CO/N=C/NC(=O)NOCc1ccc(Cl)cc1Cl	inconclusive [activator, partial curve]	–
Cc1cc(OCCCn2c(CCNC(=O)C3CCCCC3)nc3ccccc32)ccc1Cl	inconclusive [activator, single point]	–
O=C(Nc1ccccc1)c1c(F)c(F)c(F)c(F)c1F	inconclusive [activator, single point]	–
Fc1ccc(-c2nn3c(C4COc5ccccc5O4)nnc3s2)cc1 (centres undefined)	inconclusive [activator, full curve]	–
CCOC(=O)NC(=O)CSc1nnnn1-c1ccc(C)cc1	inconclusive [activator, single point]	–
CCCOc1ccc(-c2nonc2NC(=O)c2oc3ccc(Cl)cc3c2C)cc1OCCC	–	inactive: 18.6%
Cc1ccc(-n2ncc3c2CCCC3NC(=O)c2ocnc2C)cc1C (centres undefined)	inconclusive [activator, partial curve]	–
C[C@]12c3[nH]c4ccccc4c3CCN1C(=O)C(CC(=O)NCC13CC4CC(CC(C4)C1)C3)C[C@@H]2C(=O)N1CCCCC1 (some centres undefined)	inconclusive [activator, single point]	–
O=C(COC(=O)/C=C/c1ccco1)NCCc1ccccc1	active: 15.8 µM	–
COc1ccc(-n2nc(C(=O)NCC(=O)N3CCCCCC3)c3ccccc3c2=O)cc1Cl	inconclusive [activator, single point]	–
CN(C)S(=O)(=O)c1ccc(N2CCCC2)c(C(=O)Nc2ccc(F)cc2F)c1	inconclusive [activator, partial curve]	–
COC(=O)c1[nH]c2ccccc2c1NC(=O)CN1CCN(C/C=C/c2ccccc2)CC1	–	inactive: 2.79%
Nc1ccc(-c2cc(-c3cccc(N)c3)nc(-c3ccccc3)n2)cc1	inconclusive [activator, partial curve]	–
O=C(c1ccccc1F)N1CCN(c2cccc(C(F)(F)F)c2)CC1	inconclusive [activator, single point]	–
Cc1ccc(S(=O)(=O)N(C)Cc2nc(-c3ccncc3)no2)cc1	inconclusive [activator, single point]	–

Structure (SMILES)	Potency	growth rescue (activation)
CCCN(C(=O)Cc1c(C(=O)O)n(C)c2ccccc12)c1cccc(C)c1	inconclusive [activator, single point]	–
COc1cc(OC)c(C2Nc3ccccc3-c3nnc(SCc4ccccc4)nc3O2)cc1OC (centres undefined)	–	inactive: 29.5%
O=C1c2ccccc2C(=O)C1c1ccc(O)cc1	–	inactive: -10.9% [at 0.397 µM]
O=C(c1ccccc1)c1ccc2cc(O)ccc2c1	active: 11.2 µM	–
O=C(COC(=O)c1ccccc1)NCCCCc1ccccc1	inconclusive [activator, partial curve]	–
COc1ccc(OC)c(NC(=O)CSCc2cnn(-c3ccccc3)c2-n2cccc2)c1	inconclusive [activator, single point]	–
COc1cccc(-n2cc(C(=O)NCc3ccccc3OC)c3ccccc3c2=O)c1	–	inconclusive: 27.7% [activator]
Cc1ccc(S(=O)(=O)N2CCCCC2)cc1NC(=O)c1cncc(Br)c1	–	inactive: -20.3%
CCOC(=O)c1c(CN2CCN(C)CC2)oc2ccc(O)cc12	–	inactive: 6.66%
CC1(C(=O)Nc2ccc(F)cc2F)CCN1C(=O)Cc1ccccc1Cl (centres undefined)	–	inactive: 0%
O=C(COc1ccccc1Cl)N1CCN(c2ccc(F)cc2)CC1	inconclusive [activator, partial curve]	–
O=C(/C=C/c1ccccc1Cl)c1ccccc(=O)c1O	inconclusive [activator, full curve, poor fit]	–
CCN(CC)C(=O)[C@H]1C[C@H](CC(=O)NC/C=C(\C)CCC=C(C)C)C(=O)N2CCc3c([nH]c4cc(CCC(=O)N(C)C)ccc34)[C@]12C	inconclusive [activator, partial curve]	–
O=C(c1ccco1)N1N=C(c2cccs2)CC1c1ccc(F)cc1 (centres undefined)	inconclusive [activator, single point]	–
COc1ccc(Cl)cc1NC(=O)CSc1nc(N2CCOCC2)nc(N2CCOCC2)n1	inconclusive [activator, partial curve]	–
COc1ccc(N2C(=O)CC(N(C)CCc3ccc(OC)c(OC)c3)C2=O)cc1 (centres undefined)	inconclusive [activator, single point]	–
COc1ccc(-c2cccc(NS(=O)(=O)c3cc(C)c(OC)c(C)c3C)c2)nn1	inconclusive [activator, partial curve]	–
COC(=O)c1ccc(C(=O)NC(=S)Nc2nc3c(s2)CCCC3)cc1	inconclusive [activator, single point]	–
CCOC(=O)c1sc(=S)n(-c2ccccc2)c1N(C(C)=O)C(C)=O	inconclusive [activator, full curve, poor fit]	–
CC(C)n1c(C(F)(F)F)nc2cc(C(=O)N3CCC(O)CC3)ccc21	–	inactive: -16.1%
CCCCC[C@@H](C)N1C[C@H](COCc2ccccc2)Oc2cc(N3CC[C@@H](O)C3)ccc2S1(=O)=O	–	inactive: -0.858%
CC(C)(C)c1ccc(OCCn2ccccc2=O)cc1	inconclusive [activator, single point]	–
COc1cc(/C=C2\S/C(=N/S(=O)(=O)Cc3ccccc3)NC2=O)c([N+](=O)[O-])cc1OC	–	inactive: -1.13%
